Key:
[1] = target: T1, PRYSPRY domain of mouse TRIM21 with N-terminal 6xHis tag (mouse); experiment: SPR, Protein L capture
T1 construct: Expressed in E. coli; also called mTRIM21; mouse TRIM21.PRYSPRY
T1 chain: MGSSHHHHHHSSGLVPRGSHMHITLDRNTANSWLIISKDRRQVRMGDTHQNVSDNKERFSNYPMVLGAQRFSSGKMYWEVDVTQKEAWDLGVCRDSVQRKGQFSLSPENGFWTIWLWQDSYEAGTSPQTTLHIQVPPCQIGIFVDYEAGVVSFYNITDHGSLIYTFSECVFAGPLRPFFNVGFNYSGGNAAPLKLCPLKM

human FcRn = target: T2, human FcRn (human, UniProt P55899 fragment; P61769 fragment, limits assumed); experiment: SPR, Protein L capture
Chain of human FcRn (P55899 24-290 limits assumed, form in doubt, chain 1 of 2): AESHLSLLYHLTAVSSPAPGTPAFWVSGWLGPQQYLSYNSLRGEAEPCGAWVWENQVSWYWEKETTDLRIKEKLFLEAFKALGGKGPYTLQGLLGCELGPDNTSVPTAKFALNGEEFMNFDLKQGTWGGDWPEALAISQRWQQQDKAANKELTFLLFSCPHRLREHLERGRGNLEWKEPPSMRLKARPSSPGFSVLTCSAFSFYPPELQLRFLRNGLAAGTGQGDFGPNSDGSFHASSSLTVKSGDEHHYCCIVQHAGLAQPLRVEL
Chain of human FcRn (P61769 21-119 limits assumed, form in doubt, chain 2 of 2, further chain): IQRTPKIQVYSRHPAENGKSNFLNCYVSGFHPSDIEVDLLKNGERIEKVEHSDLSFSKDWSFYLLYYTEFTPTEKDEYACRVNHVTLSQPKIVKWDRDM
T2 construct: also called hFcRn

| Binder | mTRIM21 binding level ratio (variant/control antibody) [1] | hFcRn binding level ratio (variant/control antibody) (human FcRn) | binding result [1] |
| --- | --- | --- | --- |
| MRAH-G1d/MRAL-KT0 E345K (antibody, human IgG1, kappa) heavy: QVQLQESGPGLVRPSQTLSLTCTVSGYSITSDHAWSWVRQPPGRGLEWIGYISYSGITTYNPSLKSRVTMLRDTSKNQFSLRLSSVTAADTAVYYCARSLARTTAMDYWGQGSLVTVSS[human IgG1 constant region with E345K (EU numbers) omitted here] light: DIQMTQSPSSLSASVGDRVTITCRASQDISSYLNWYQQKPGKAPKLLIYYTSRLHSGVPSRFSGSGSGTDFTFTISSLQPEDIATYYCQQGNTLPYTFGQGTKVEIKRTVAAPSVFIFPPSDEQLKSGTASVVCLLNNFYPREAKVQWKVDNALQSGNSQESVTEQDSKDSTYSLSSTLTLSKADYEKHKVYACEVTHQGLSSPVTKSFNRGEC | 2.5 | 0.83 | – |
| MRAH-G1d/MRAL-KT0 L314E (antibody, human IgG1, kappa, copies: 2 + 2) heavy: QVQLQESGPGLVRPSQTLSLTCTVSGYSITSDHAWSWVRQPPGRGLEWIGYISYSGITTYNPSLKSRVTMLRDTSKNQFSLRLSSVTAADTAVYYCARSLARTTAMDYWGQGSLVTVSS[human IgG1 constant region with L314E (EU numbers) omitted here] light: DIQMTQSPSSLSASVGDRVTITCRASQDISSYLNWYQQKPGKAPKLLIYYTSRLHSGVPSRFSGSGSGTDFTFTISSLQPEDIATYYCQQGNTLPYTFGQGTKVEIKRTVAAPSVFIFPPSDEQLKSGTASVVCLLNNFYPREAKVQWKVDNALQSGNSQESVTEQDSKDSTYSLSSTLTLSKADYEKHKVYACEVTHQGLSSPVTKSFNRGEC | – | 0 | no binding (tested: 100 nM) |
| MRAH-G1d/MRAL-KT0 L432R (antibody, human IgG1, kappa, copies: 2 + 2) heavy: QVQLQESGPGLVRPSQTLSLTCTVSGYSITSDHAWSWVRQPPGRGLEWIGYISYSGITTYNPSLKSRVTMLRDTSKNQFSLRLSSVTAADTAVYYCARSLARTTAMDYWGQGSLVTVSS[human IgG1 constant region with L432R (EU numbers) omitted here] light: DIQMTQSPSSLSASVGDRVTITCRASQDISSYLNWYQQKPGKAPKLLIYYTSRLHSGVPSRFSGSGSGTDFTFTISSLQPEDIATYYCQQGNTLPYTFGQGTKVEIKRTVAAPSVFIFPPSDEQLKSGTASVVCLLNNFYPREAKVQWKVDNALQSGNSQESVTEQDSKDSTYSLSSTLTLSKADYEKHKVYACEVTHQGLSSPVTKSFNRGEC | 1.13 | 0 | – |
| MRAH-G1d/MRAL-KT0 M428R (antibody, human IgG1, kappa, copies: 2 + 2) heavy: QVQLQESGPGLVRPSQTLSLTCTVSGYSITSDHAWSWVRQPPGRGLEWIGYISYSGITTYNPSLKSRVTMLRDTSKNQFSLRLSSVTAADTAVYYCARSLARTTAMDYWGQGSLVTVSS[human IgG1 constant region with M428R (EU numbers) omitted here] light: DIQMTQSPSSLSASVGDRVTITCRASQDISSYLNWYQQKPGKAPKLLIYYTSRLHSGVPSRFSGSGSGTDFTFTISSLQPEDIATYYCQQGNTLPYTFGQGTKVEIKRTVAAPSVFIFPPSDEQLKSGTASVVCLLNNFYPREAKVQWKVDNALQSGNSQESVTEQDSKDSTYSLSSTLTLSKADYEKHKVYACEVTHQGLSSPVTKSFNRGEC | 0.078 | 0.05 | – |
